Assay results from the supplement of paper PMC3334620.
Whole data set: some 33,000 sequences, median “E-score (-0.5 to 0.5)” near -0.013, cut for the highest 2% near 0.3. The list shows a part of the results.

Target: T1, Msn1 (UniProt P22148)
T1 sequence: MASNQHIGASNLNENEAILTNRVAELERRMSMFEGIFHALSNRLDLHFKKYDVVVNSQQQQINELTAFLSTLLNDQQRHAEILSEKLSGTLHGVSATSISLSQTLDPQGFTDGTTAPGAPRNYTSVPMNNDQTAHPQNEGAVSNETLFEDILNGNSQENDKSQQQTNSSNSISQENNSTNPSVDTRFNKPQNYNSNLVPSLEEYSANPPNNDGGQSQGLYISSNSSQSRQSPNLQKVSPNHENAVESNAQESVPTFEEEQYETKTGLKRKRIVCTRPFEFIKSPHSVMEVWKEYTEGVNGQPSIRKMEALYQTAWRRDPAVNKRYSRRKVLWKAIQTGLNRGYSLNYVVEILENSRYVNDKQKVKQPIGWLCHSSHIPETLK
Experiment: PBM E-score (8-mer binding enrichment) (E-score (-0.5 to 0.5)); higher = stronger / more preferred TF binding; most listed sequences are background and not binding sites
Details: protein concentration: 200 nM; construct: GST-full length
Experimental: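 Universal 'all 10-mer' protein binding microarrays (Agilent AMADID 015681) probed with GST-tagged S. cerevisiae TFs (full-length or DBD) made by in vitro transcription/translation (PURExpress), about 100-200 nM. Bound TF was detected with fluorescent anti-GST. Each ungapped 8-mer (which stands for itself and its reverse complement) is scored by the PBM enrichment score (E-score), a modified Wilcoxon-Mann-Whitney statistic from -0.5 to +0.5, computed with the Universal PBM Analysis Suite. Scale: above 0.35 generally sequence-specific binding.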

Sequence	PBM E-score
GTCATGGA	-0.109
TAGCCGCA	-0.121
AGAAAACA	0.108
CGGAAACC	-0.114
ACAAATGC	0.304
AAAGGACA	0.445
AACGGGGT	-0.0951
GTAAAGAC	0.12
CCCTCAAA	-0.121
GTGAGAAC	-0.219
CACTGAGC	-0.0239
AGGGATCA	-0.166
ATTAATTC	0.214
AGCAACCC	-0.18
GCCCTGAC	-0.211
TACACTGA	0.0723
GAAGCGAA	0.0924
ACATTCGT	0.0578
AGTATCGG	0.0763
TCACACGA	0.049
ATGATTAA	0.118
ACAGACTG	0.112
ACAAAGGA	0.0497
CTCCAATA	0.0417
CAATTAGG	0.0526

Sequence	PBM E-score
ATCGGCCG	-0.0299
CACCTATA	3e-05
AGACGTCG	-0.115
GACGGTAA	0.0175
CAGCCTTC	-0.31
AGTCCCGC	-0.0107
ACGTTGGA	-0.128
GTACTGGA	0.239
AAGCTGTC	-0.241
GAGTCTGC	-0.176
GAACGTAA	0.0922
CCCTAACA	-0.00569
AGGGACGC	-0.0191
ACCTGCGC	-0.279
AGGCATCG	-0.148
CCAAGTAC	-0.0511
AGGCCCTC	-0.234
AACGAGAT	-0.0153
GATTCTCA	0.00787
AGAACGTC	0.0864
GGCTTACC	-0.234
AAAACACT	0.122
CTTCACTC	-0.159
CGTTAAGC	0.133
AAAACGCC	0.045

Sequence	PBM E-score
GAGGGCCA	-0.104
ACCTCTTC	0.0198
GCTATCTA	-0.126
CTGTTGCA	-0.11
AGACTGGC	-0.236
CATCGTTA	-0.0369
GACCTCAC	-0.0299
CATTGTGG	0.0659
ATTCATTA	0.212
TCCCAGCA	0.131
CGGTATAA	0.0639
AGGCCTAC	-0.0353
CGGTTAAC	-0.274
ATATCCTG	0.0176
AACAGATT	0.0347
AAGCCGTG	-0.0765
CGGGTTTC	0.0761
CGCCTCGC	-0.168
CGCCCGTA	-0.0328
ATTTATAG	0.0981
AATGATCG	-0.132
AGCTTGTC	0.168
ACCACGAG	0.0543
GCACGGCC	-0.144
ATGGGACA	0.429

Sequence	PBM E-score
CATTAGAA	0.17
ACTTACTC	-0.0652
ACTATGAT	-0.0735
ACATTAGC	0.147
CATAAGTA	0.0662
CAAACTGA	0.0169
AATGGTAA	0.142
GAAATAAA	0.0577
CGCCTGAG	0.00251
ACACACCT	0.0978
CGACCGCG	-0.0918
CGGACGCA	0.0711
ATATTACG	0.153
CCACCCCA	-0.189
GTGTGCAA	-0.0418
ACGATGAG	0.0593
CGATCACA	0.165
GAGACATA	0.448
GCATTCAA	-0.239
CCCTAATA	0.0635
GCTGTTGA	-0.0159
CGTTCTAG	0.0924
CTAGACAG	0.00829
CTCGAAAG	-0.156
ACTCCCAA	-0.0401

Sequence	PBM E-score
ACTAGTAC	0.21
GAGACCAA	0.068
CTACAGCA	-0.109
CAATGACA	0.298
GATCTTCA	0.0348
ACTAAAAA	0.309
GCCTTTTA	0.0668
AATTAAGA	0.14
GATGGCGA	0.048
AGAATACA	0.149
AGGGCAGG	-0.0906
CGGGAGGA	-0.0135
ATCTTATG	0.0986
ACCTGGCA	-0.0445
AAATTTCA	-0.0065
ACTGGGTA	-0.0457
AATATCGT	0.131
GTAGACCA	-0.206
CGTTTCAA	0.185
ATTGGATA	0.0185
TGCTAACA	-0.0311
ACCAGTAT	0.0101
GGGCACCC	-0.367
TACCACTA	-0.0138
AAGAAACA	0.181

Sequence	PBM E-score
CAGGACAG	0.259
ATCAAATC	-0.0029
GAGGCCAA	-0.224
CCGATTAC	-0.0406
AATTGAGA	0.114
CCCTTCAA	-0.185
AAACTCGT	0.0896
AAATCGGT	0.0247
TAGGAGAA	-0.148
ACTCGAGC	0.0838
GATTCTCC	-0.142
TATGTGGA	0.0929
ATGACCGG	-0.0236
AGTATTTC	0.113
CCCCTGAC	-0.118
AGCAGGAC	0.194
GTGGATTA	0.0377
CACTCAGA	-0.0156
CAGTTAGC	-0.17
AAACTGAG	-0.0786
AACGATCA	-0.175
GTGGCCGA	-0.118
ACTAGGAT	-0.0469
CCCGTACC	-0.147
AAGGGGAA	-0.135

Sequence	PBM E-score
GCACCCAC	-0.091
ATAAGCGG	-0.0354
AATCTGGG	-0.203
AACAGACT	0.132
AGCTAGGA	-0.021
CCCCGAAC	-0.00181
CAGTGGTA	-0.194
AAGACAGT	0.0956
AGTAGAAG	-0.0712
ACAGGGGC	-0.326
GGGGAAGA	-0.223
ATCGCTAG	0.022
TGCGAACA	0.0208
AAAATGAG	0.116
AATGACGG	0.0318
CACAGGGG	-0.389
CACTGTGC	-0.00552
CCTGTCGA	-0.133
CTGGTAAC	-0.0643
CTTCCCTA	-0.129
ACTCCAAA	-0.0742
ACCATCCC	-0.19
AGTTGCCA	-0.0802
ACCACACC	-0.156
CTGCTAAC	-0.128

Sequence	PBM E-score
GGGACCCC	-0.339
AAGGAGGT	-0.268
AGCCGCTG	-0.132
CACCTTCA	-0.115
ACCCGTGA	-0.129
ACGGAGTG	-0.0682
AGCGCCAT	-0.266
CAAGTACC	0.0476
AGGTCGGC	-0.119
AGATCCCT	-0.102
AACTCTAG	0.0199
CTCCTCGC	-0.194
ATATGCGG	0.0743
AGCCGCTC	-0.0659
CCATAAGA	0.127
CTCATGAG	-0.0174
GAACTAGC	0.0138
GCTTCAGA	-0.113
ATCCAAAA	0.15
GGTTTACA	0.00093
AAGGCCTG	-0.191
AGCGGGGC	-0.0893
ACCATACG	0.00344
AGCGAATG	-0.207
ATTAGCTG	-0.0513

Sequence	PBM E-score
AAACATGC	-0.0353
AGTAACGC	-0.119
TAATTACA	0.107
AAAGTTTA	0.172
GATGAAAC	-0.0473
CGGGCGCA	-0.113
ATCGAAAA	0.0262
GCGTCACC	-0.162
CAGAAACG	0.0904
AACCTTCC	-0.283
CTGAAATA	0.202
AAAGTACC	0.2
TATAGAAA	0.0717
AGACCGTC	-0.148
CCTCCGCG	-0.073
ACATAGGC	0.0383
ATAGCCAC	0.00714
CCGATGTA	0.0813
CTTCTACC	-0.129
CTGCGGGC	-0.208
CTGCGGCC	-0.0276
GTTCGCAA	0.122
ACTATAGT	0.113
AATATCAG	0.196
CAGTCGTA	-0.0822

Sequence	PBM E-score
GAAGTACC	-0.0435
GTCTCGCA	0.0474
GGCCCCCC	-0.421
GAAATAGA	-0.0139
ACAACACC	0.0364
AATCGGGT	0.176
CTTAAAAC	0.196
CATTAAAG	0.0284
CGCTAGAC	-0.0952
CGCCGGCG	0.204
CACCAACG	0.185
AAAGCTAC	-0.161
CTCCTCTA	-0.208
GCATTCGA	0.0535
CAGCAAAA	0.0953
CCCCCGCG	-0.363
TCGTCTCA	0.0221
CTCTTACC	0.0706
AAATTTCG	0.166
AGCAGCCT	-0.19
GGGTAAAA	0.145
CCGTAAAA	0.0607
CTTGCCCA	0.0297
GACGGAAA	0.106
ACACGGGG	-0.0186

Sequence	PBM E-score
AGGAAACC	-0.133
AGTCAGTG	-0.0432
AATGAGAG	-0.161
AACACTGT	-0.00322
CCGCGGAC	0.123
ATTGGCCC	-0.124
AACTTAAA	0.195
ATACTACA	0.213
CACCAGCG	-0.152
AACGTTTC	0.0583
GGACGACA	0.236
CGCAGAAA	0.0619
GGTAGTGA	-0.0547
CAGTAAAG	-0.152
GCAGCGAA	0.0208
AGGAACAG	-0.168
CTACAGAC	-0.0345
ATTCTAGG	0.155
ATCCTAAT	-0.0206
ACCCAGCA	-0.111
ATCATCTA	-0.045
CATTGGCG	-0.24
ATAGTGAC	-0.0106
CCTTGTTC	-0.169
CACCCAGA	0.00561

Sequence	PBM E-score
CAAGAACG	0.0575
ATGGTTGC	-0.269
ATGACGTA	0.145
ATCAAATA	0.0651
ATGTTTTC	0.172
GATGTGCA	-0.0778
ATACCTGC	-0.243
CGAGACAA	0.365
AGCTAATG	0.0197
CCATTCAA	0.0362
ATCGTAAT	-0.0298
ACTTAACA	0.0857
AGCTCACG	-0.0597
ACAAAGCA	0.245
CGCTACAC	-0.231
CGCCGCGC	0.033
GAGTGAAC	-0.164
TATCGCAA	0.015
CAGAAGCC	-0.241
CACTATAC	0.0205
GGAGACAC	0.0421
AATGTGTA	0.125
AGGGACGG	-0.35
ATACAAGG	0.122
CACAACTC	0.0628

Sequence	PBM E-score
ATGCATCA	0.0648
AAACGCCC	-0.167
GCATCTCA	-0.0389
CAAACAAG	0.0508
CTTTATCA	0.201
GCAGCGCA	-0.203
ACAGCATA	0.0958
AGTTTACC	-0.0158
ACCGGCAA	-0.081
GACGACAC	0.131
CAGATGAA	0.156
AACAGCCG	-0.0973
ACTCTCTA	0.114
AATGTCAG	0.254
CAAAGATC	0.136
GCCGACGC	0.0201
CCTAGGCC	-0.192
AGATTCAG	-0.0889
CAAAGGGG	-0.0101
ACTCTCCT	-0.0918
AGCCAGCG	-0.15
CGGAGTGA	0.0725
ATGCTATC	-0.105
CTAAGTGA	0.0358
CAGTTACG	-0.0781

Sequence	PBM E-score
TCCAGAAA	0.0933
GGTGAGAA	-0.0685
CACTTGCA	-0.0887
CAAGGCGA	-0.0587
ACTCGATC	-0.00093
ACTGTGAA	0.0324
ACTCTATG	-0.194
ACGGTCAG	-0.117
AGGAAACG	-0.017
TGAGGCAA	-0.0211
CCCGTAAC	-0.0775
GACTTAGA	0.027
ACATTGAG	0.134
TCCGCGGA	0.104
CACCCTTC	-0.215
TTACATAA	0.0155
CAACAAAA	0.0735
CTCCGGAG	0.0152
AACCCTCG	-0.107
